# Data reported in patent US20250066450A1 (LASK PHARMA, published 2025).
# T1: BMP10 (UniProt O95393 317-424)
# T1 sequence (looked up): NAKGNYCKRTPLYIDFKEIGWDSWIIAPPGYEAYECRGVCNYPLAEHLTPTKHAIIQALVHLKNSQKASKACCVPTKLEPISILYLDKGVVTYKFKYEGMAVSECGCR
# B1: ALK6-Fc fusion polypeptide (SEQ ID NO: 55) (Fc fusion)
# chain: KKEDGESTAPTPRPKVLRCKCHHHCPEDSVNNICSTDGYCFTMIEEDDSGLPVVTSGCMKYEGSDFQCRDTPIPHQRRSIECCTERNECNKDLHPTLPPVVIGPFFDGSIRTGGGGSGGGGSGGGGSGGG[human IgG1 Fc and a few adjoining residues not listed]
# Target: T1, BMP10
# Test: Biacore (SPR); Fc fusion captured with anti-Fc antibody, ligand injected
# Description: A Biacore™-based binding assay was used to compare ligand binding selectivity of the ALK6 variant-Fc dimeric complex (e.g., SEQ ID NO: 46) described above with that of ALK6 wt-Fc complexes (SEQ ID NO: 49). The Fc dimeric complexes were independently captured onto the system using an anti-Fe antibody. Ligands were injected and allowed to flow over the captured receptor protein.
binder,measurement,value
B1,binding result,no binding
